{"source": "paper PMC12136788", "binders": {"B1": {"name": "chr1:46159212:46159213:+_ENSG00000159596_ENST00000372025|hu_hu|FALSE|FALSE (ssRNA)", "RNA": "GGGAGUUCUACAGUCCGACGAUCUCUGAUCCCACCCAAGAAAGAUAGGAAACUGGCUCCAUAAGCCAUCUGAGUAAAAGCUAAUAUGGGAAUAUAAGUUUUUGUCAUCAGCAUGACCAGUGGUGGAGCAACGAAGGGGAUUAGCAACAGAGGAUUGAGCAUCA"}, "B2": {"name": "105544292_105553185_213_3pUTR_ENSMUSG00000068798_ENSMUST00000090678|mouse|control|control (ssRNA)", "RNA": "GGGAGUUCUACAGUCCGACGAUCUGCACUGUUGGCAAUCUACCUCGACUUGCUUUCUGUAGGAAUCUUCUAUCGUUGGGUCAUAUUUUUCAACAAAAAUCCCCUGAACAAACUGAACUGUCAGAGCAGACUUCCCCACGCCUCCAACAGAGGAUUGAGCAUCA"}, "B3": {"name": "135086339_135086459_490_3pUTR_ENSMUSG00000028165_ENSMUST00000029815|mouse|control|control (ssRNA)", "RNA": "GGGAGUUCUACAGUCCGACGAUCCGUCCGCUGCCCGGCUGCUGCGCUUGCGUGAGAGCGGAAGCGGCCGGCGGGCUCGCGGGCUCGGGCGGGAGGUGGCCCGCCGGGCCGCGAUUGGCGCGCGGCGAGUGACGUGCGCGCUGCCAACAGAGGAUUGAGCAUCA"}, "B4": {"name": "chr10:112362630:112362631:-_ENSMUSG00000074748_ENSMUST00000099276|mus_mus|FALSE|FALSE (ssRNA)", "RNA": "GGGAGUUCUACAGUCCGACGAUCGGAUUACUUAUUAAAAAAUAAGAAUCUCCAAAACAAAGGACAGUGGUGAAUUUCAAACUACCCUCCCCCAAUGAUCCCAGCAUGCGAUAAUGCCAGGUAGUGGCCCCUGGGCAUGCGAUGCAACAGAGGAUUGAGCAUCA"}, "B5": {"name": "chr4:25749455:25749456:-_ENSG00000091490_ENST00000264868|hu_hu|hu_hu_hu_mus_False|38_38 (ssRNA)", "RNA": "GGGAGUUCUACAGUCCGACGAUCGCACUAUGACCUCUAGAAAAAUCCACAGGGGGAAAAAAUGUAAACCAAUGUACAAUGUUAUCGCCUUCCCUGUAUUUCCAGGCUUUGUCUCAAGGCUCCUUCUAGCUGCUGGAUUUGGGACAACAGAGGAUUGAGCAUCA"}, "B6": {"name": "155408821_155429669_5543_CDS_ENSG00000116539_ENST00000392403|human|control|control (ssRNA)", "RNA": "GGGAGUUCUACAGUCCGACGAUCAGCAACUAAUCUUGGACUUCGAGAGGGAACUCCGUUUACUGUUGAAGAAGUACUCUCAGAUGAAGACCUUUUCCGGGUAGGGCUACAAUUUGUGCUCUCUGAUGGCCGCUGGGAGGGUUUCAACAGAGGAUUGAGCAUCA"}, "B7": {"name": "chr2:232320318:232320319:-_ENSG00000115053_ENST00000322723|hu_hu|motif|central (ssRNA)", "RNA": "GGGAGUUCUACAGUCCGACGAUCACUGUUGAAGUCUACAAAACCAAACCCUUUGGAGGACCCAGUUUCCCGGUCAGUAACGGUCCUUGCCCGAACGGAGCCGUCAAAUGACUCCUUUAAUGUCUCUUCAGUGGUAUCCUCAGACAACAGAGGAUUGAGCAUCA"}, "B8": {"name": "chr19:10058675:10058676:+_ENSMUSG00000024661_ENSMUST00000025563|mus_hu|FALSE|FALSE (ssRNA)", "RNA": "GGGAGUUCUACAGUCCGACGAUCUGGUGAAGAAAGUAUUUGGCAAAGUUCUUCAAAGCCACAUCAUCGCGGUCAAAGUAGUAAGACUGCGAGGUGGACGCGGUCGUCAUGGCGGCGACUAAGGAGAGGCGGCGGCGGCGGCGGCAACAGAGGAUUGAGCAUCA"}, "B9": {"name": "chr1:193065829:193065830:-_ENSG00000023572_ENST00000367439|hu_mus|FALSE|FALSE (ssRNA)", "RNA": "GGGAGUUCUACAGUCCGACGAUCUUUUUUUAAAUAACACUGAUGAACCAGAGGCAGCAAUUUCCCUUCUUUGUGAAGCCUGUGAGUGUCCGCUGCGCCUCCAAUAAAUCGUCCAUUGACAAAUAUCCUGGGAACGGUUCUUUCCAACAGAGGAUUGAGCAUCA"}, "B10": {"name": "chr16:87451109:87451110:-_ENSG00000140948_ENST00000268616|hu_mus|motif|central (ssRNA)", "RNA": "GGGAGUUCUACAGUCCGACGAUCCUUCUCCAUGGUGAGCUGUUUAAAGACAGGGUAAUACUUGUGCAAGCGCAGCUUCCGGAGCCAGUCUAAAAUCCCAUUCUGCUCCUGGGGCUGAGGGGUCUGCAGACUGGAGGGCAUAAGCAACAGAGGAUUGAGCAUCA"}, "B11": {"name": "chr2:29016751:29016752:+_ENSG00000213639_ENST00000296122|perfect_dup|motif|central (ssRNA)", "RNA": "GGGAGUUCUACAGUCCGACGAUCUUUAGCAAAAAAUUCAUAUCCGUCUUCCACCACCUGAUGAGCUCGACAAAUCAAGUCGGAAUCAUGACGAUUCAGAAAUUUACUGACUACAUCAGCUCCAAAAGUAAAAGAAACACCACGCAACAGAGGAUUGAGCAUCA"}, "B12": {"name": "chr7:56126341:56126342:+_ENSG00000146731_ENST00000540286|hu_mus|motif|central (ssRNA)", "RNA": "GGGAGUUCUACAGUCCGACGAUCCAUGUUUCUCCUCUUGGCUCUGCGCAGAGCUACGAUCCCUUCUUUCGCAAGGGCAUCGGAGGAAAAGGGGUCAAUCCCCUUUUGAUUAAUAACGACAAAUCCUUUAUCUGAGUCACCACACAACAGAGGAUUGAGCAUCA"}, "B13": {"name": "chr18:9859796:9859797:+_ENSG00000168461_ENST00000578921|hu_hu|FALSE|FALSE (ssRNA)", "RNA": "GGGAGUUCUACAGUCCGACGAUCCAUUGACACUUCUCUGAUUUCCUCCAAAAAGUAAUAAAUAAAGGCUUACUUCCAAAGCUAGCUAAAAACUAACCUCCUGAACUAAAUUUGCCUUUCAGUGAAGGUUGGUUAGGUAACAAACAACAGAGGAUUGAGCAUCA"}, "B14": {"name": "chr16:1877921:1877922:+_ENSG00000180185_ENST00000427358|hu_mus|motif|central (ssRNA)", "RNA": "GGGAGUUCUACAGUCCGACGAUCUUUCAUUAUUAGUGUCAUUUAUUUCCCUUGCUUCUGUCUCCCUUCCCCUUUGGCACUCGGCUCUCAGUAUUCUGAUCUUUUCACCUUGAACCUCAUACUAACCACCCCAUCUAUGCCGGCCAACAGAGGAUUGAGCAUCA"}, "B15": {"name": "chr2:202488911:202488912:-_ENSG00000155755_ENST00000286196|hu_hu|motif|central (ssRNA)", "RNA": "GGGAGUUCUACAGUCCGACGAUCUUUUAACAUUUUUCAUAAUAUUGAGAGAUGUUUCAGUAUUAUAUAAUCAAAAAAUCGGUUACAAAUACACAUGUAUACAUCUUAUAAAAAUACAUUUAAAAACAAAAAUGGGACAAAUACCAACAGAGGAUUGAGCAUCA"}, "B16": {"name": "chr9:58049234:58049235:-_ENSMUSG00000051243_ENSMUST00000163200|mus_mus|FALSE|FALSE (ssRNA)", "RNA": "GGGAGUUCUACAGUCCGACGAUCGCUGUGGCGGUGGGGAGAAAGGGGGAGUGCAUUGAAAGAACUCCCCUUGGCCCCAAAGUCCUACUUCAAUUUUUUUCUUUCCUUAUCUGUUCGCCCUACUUCUCCAGGAUUGCAGGUUUGCAACAGAGGAUUGAGCAUCA"}, "B17": {"name": "chr5:116376479:116376480:+_ENSMUSG00000029516_ENSMUST00000051704|mus_hu|FALSE|FALSE (ssRNA)", "RNA": "GGGAGUUCUACAGUCCGACGAUCCUGCUCCAGGAGGGAUCUCUGAGUCUCAGAGGCCUUCAGCUCCACCUCCUUCUGACUAAGCACAGCCUCCACCUCUGACACUCUCCGAUGUAACCGGGUCAUUUCCUGCUCCAUCUUGUGCAACAGAGGAUUGAGCAUCA"}, "B18": {"name": "chr2:9570881:9570882:+_ENSG00000119203_ENST00000238112|hu_mus|hu_hu_hu_mus_False|88_88 (ssRNA)", "RNA": "GGGAGUUCUACAGUCCGACGAUCACUUGUCUUCUGAAGGAACCAGGGCAGAGCUCCACAGUGAUCCAAAUGGAAAUGACUGAUCAACAGAAGGUCGAUCUCAGCUGGGUCGAUAAGGUCAAUGUAAGGAAGGGCAUCCAUUCCCAACAGAGGAUUGAGCAUCA"}, "B19": {"name": "chr2:148695906:148695907:-_ENSG00000115947_ENST00000542387|hu_hu|FALSE|FALSE (ssRNA)", "RNA": "GGGAGUUCUACAGUCCGACGAUCGACCAUUUGAAAAUUAAAUGGCUCUUCCUCAUAGAUGUCAUUUAAAUGUUUCAUUGCUAUUAUAAGACAGAUUUCCAAGACUGAUAGACCAUGUACAAUAUUUGCUUUCGAGUCCAUGCUCAACAGAGGAUUGAGCAUCA"}, "B20": {"name": "48278469_48278589_1400_CDS_ENSMUSG00000038143_ENSMUST00000110367|mouse|control|control (ssRNA)", "RNA": "GGGAGUUCUACAGUCCGACGAUCCAUGGGGAAAUGGGACUCGAUCACGUUCGUGUUGCUAUGCAUGAUGAAGUUGUCCCCUUUGUGUUCAAUGAUGAAGCAGCCCUCUCUGGGGGCCCUGGUUAGAGGGUCGCAAAAUUCAUACAACAGAGGAUUGAGCAUCA"}, "B21": {"name": "chr1:46159212:46159213:+_ENSG00000159596_ENST00000372025|hu_mus|hu_hu_hu_mus_True|1_68 (ssRNA)", "RNA": "GGGAGUUCUACAGUCCGACGAUCUCUGAUCCCUCCCAAGAAAGCUAGGAAACCGGCUCCAUAAGCCAUCUGAGUAAAAGCUAGGACGGGGAUAUAAGACUUUGUUAUUACCAUGAGAAGUGGGGGAGCAGUAAAGGGGAUUAGCAACAGAGGAUUGAGCAUCA"}, "B22": {"name": "chr10:1038518:1038519:+_ENSG00000107937_ENST00000545048|hu_hu|hu_hu_hu_mus_False|28_48 (ssRNA)", "RNA": "GGGAGUUCUACAGUCCGACGAUCCAGUCUGUCAUGGUAAUUCUGUUGAGUAAAUUUGACUUUUCUCAUAUAAAAAUGUCGAAUCCGAUGUAUUUGGUAAUGUUUAUGAAUAACGGUUGGAGUCUUUCGUUGAGUCUUGGAUAACAACAGAGGAUUGAGCAUCA"}}, "note": "The other results are listed elsewhere or left out."}
{"molecular_target": "T1, UNK ZnF1-3 (human, UniProt Q9C0B0 31-174)", "T1 sequence": "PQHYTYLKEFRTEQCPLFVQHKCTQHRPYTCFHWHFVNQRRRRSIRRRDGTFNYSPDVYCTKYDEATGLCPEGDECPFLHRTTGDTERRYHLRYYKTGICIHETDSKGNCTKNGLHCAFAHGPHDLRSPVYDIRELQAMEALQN", "assay": "nsRBNS (natural sequence RNA bind-n-seq); RBNS binding buffer (assumed for nsRBNS): 25 mM Tris pH 7.5, 150 mM KCl, 3 mM MgCl2, 0.01% Triton X-100, 500 ug/ml BSA, 20 U/ml SUPERase-In, 4 C; UNK is unkempt and MSI1 is Musashi-1; names of the RNAs are library labels; protein concentration not given here; high values mean tight binding", "units": {"binding signal": "enrichment R"}}
{"binder": "B1", "binding signal": 1.49}
{"binder": "B2", "binding signal": 0.966}
{"binder": "B3", "binding signal": 0.351}
{"binder": "B4", "binding signal": 0.709}
{"binder": "B5", "binding signal": 1.09}
{"binder": "B6", "binding signal": 1.11}
{"binder": "B7", "binding signal": 0.863}
{"binder": "B8", "binding signal": 0.843}
{"binder": "B9", "binding signal": 0.794}
{"binder": "B10", "binding signal": 1.37}
{"binder": "B11", "binding signal": 1.36}
{"binder": "B12", "binding signal": 0.805}
{"binder": "B13", "binding signal": 1.02}
{"binder": "B14", "binding signal": 0.795}
{"binder": "B15", "binding signal": 0.785}
{"binder": "B16", "binding signal": 1.03}
{"binder": "B17", "binding signal": 0.684}
{"binder": "B18", "binding signal": 1.28}
{"binder": "B19", "binding signal": 0.9}
{"binder": "B20", "binding signal": 0.647}
{"binder": "B21", "binding signal": 1.28}
{"binder": "B22", "binding signal": 0.747}
